# Data published in the supplement of paper PMC9135407.
# Where “and” joins values, the source holds several entries; their conditions need not be identical. Identical values can stand only once. Counter-ions that a name gives are not always drawn. The whole screen tested about 5,800 compounds, of which about 620 (11%) showed activity.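 Rule for the calls: active = score above a cut-off or among the top three wells of a plate; in these data no inactive exceeds 0.85.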 The list shows a part of the results, in another mix than the full data.
# System: primary human hepatic stellate cells (donor 1)
# Assay: scaled lipid accumulation score (0 = DMSO-like, 1 = nortriptyline-like); higher = stronger HSC inactivation (lipid re-accumulation), active = hit call of the paper
# Conditions: 48 h
# [1] = library stock concentration: 10 mM
# [2] = library stock concentration: 3.33 mM
# [3] = library stock concentration: 10.4 mM
# [4] = library stock concentration: 1 mM
# [5] = library stock concentration: 80 uM
# [6] = library stock concentration: 400 uM
# [7] = library stock concentration: 2 mM
smiles,measurement,setting,value
CCN(CC)CCCC(C)Nc1c2ccc(Cl)cc2nc2ccc(OC)cc12 (stereo not drawn) [Quinacrine dihydrochloride],scaled lipid accumulation score,[1],inactive: 0.536
CCN(CC)CCCC(C)Nc1c2ccc(Cl)cc2nc2ccc(OC)cc12 (stereo not drawn) [Quinacrine dihydrochloride dihydrate],scaled lipid accumulation score,,inactive: 0.288
CCN(CC)CCCC(C)Nc1c2ccc(Cl)cc2nc2ccc(OC)cc12 (stereo not drawn) [Quinacrine 2HCl],scaled lipid accumulation score,[2],inactive: 0.307
same,scaled lipid accumulation score,[1],inactive: 0.325
CCN(CC)CCCC(C)Nc1c2ccc(Cl)cc2nc2ccc(OC)cc12 (stereo not drawn) [Quinacrine hydrochloride],scaled lipid accumulation score,[1],inactive: 0.586
Cc1cc2c(cc1Cl)N(C(=O)Nc1ccnc3ccccc13)CC2,scaled lipid accumulation score,[1],active: 1.08
Cc1nc(C)c(Cl)c(O)c1Cl [Clopidol],scaled lipid accumulation score,[1],inactive: ≤ -0.027
same,scaled lipid accumulation score,[3],inactive: ≤ 0 and inactive: 0.014
CCCCCCCCCCCCCCCC[N+](C)(C)CCN(Cc1ccc(OC)cc1)c1ncccn1 [Thonzonium bromide],scaled lipid accumulation score,,inactive: 0.318
O=C(O)P(=O)(O)O [Foscarnet Sodium],scaled lipid accumulation score,[2],inactive: ≤ 0
same,scaled lipid accumulation score,[1],inactive: ≤ 0
O=C(O)P(=O)(O)O [Foscarnet sodium],scaled lipid accumulation score,[1],inactive: ≤ 0
same,scaled lipid accumulation score,[3],inactive: ≤ 0
CC1=C(C)C(=O)C(CCCCC#CCCCC#CCO)=C(C)C1=O [Docebenone],scaled lipid accumulation score,library stock concentration: 6.1 mM,inactive: ≤ -0.006
CC1=C(C)C(=O)C(CCCCC#CCCCC#CCO)=C(C)C1=O,scaled lipid accumulation score,[1],inactive: 0.105
same,scaled lipid accumulation score,library stock concentration: 15.3 mM,inactive: ≤ -0.012
Nc1ccc(C(=O)Nc2cccc(-c3nc(N4CCOCC4)c4oc5ncccc5c4n3)c2)cn1,scaled lipid accumulation score,[1],active: 0.915
C#C[C@]1(O)CC[C@H]2[C@@H]3CCc4cc(OC)ccc4[C@H]3CC[C@@]21C [Mestranol],scaled lipid accumulation score,[2],inactive: 0.005
same,scaled lipid accumulation score,library stock concentration: 6.4 mM,inactive: 0.127
same,scaled lipid accumulation score,[1],inactive: 0.511
C#C[C@]1(O)CC[C@H]2[C@@H]3CCc4cc(OC)ccc4[C@H]3CC[C@@]21C,scaled lipid accumulation score,[1],inactive: 0.814
C#C[C@]1(O)CC[C@H]2[C@@H]3CCc4cc(OC)ccc4[C@H]3CC[C@@]21C [Ethynylestradiol 3-methyl ether],scaled lipid accumulation score,,inactive: ≤ 0
CC(C)NCC(O)c1ccc(NS(C)(=O)=O)cc1 (stereo not drawn) [Sotalol],scaled lipid accumulation score,[2],inactive: ≤ 0
same,scaled lipid accumulation score,[1],inactive: ≤ 0
CC(C)NCC(O)c1ccc(NS(C)(=O)=O)cc1 (stereo not drawn) [(?)-Sotalol hydrochloride] [listing 1 of 2 here],scaled lipid accumulation score,[1],inactive: ≤ 0
CC(C)NCC(O)c1ccc(NS(C)(=O)=O)cc1 (stereo not drawn) [Sotalol HCl],scaled lipid accumulation score,library stock concentration: 7.3 mM,inactive: ≤ -0.006
CC(C)NCC(O)c1ccc(NS(C)(=O)=O)cc1 (stereo not drawn) [Sotalol hydrochloride],scaled lipid accumulation score,,inactive: ≤ 0
same,scaled lipid accumulation score,[1],inactive: ≤ 0
CC(C)NCC(O)c1ccc(NS(C)(=O)=O)cc1 (stereo not drawn) [(?)-Sotalol hydrochloride] [listing 2 of 2 here],scaled lipid accumulation score,[1],inactive: ≤ 0
COc1ccc2cccc(CCNC(C)=O)c2c1 [Agomelatine],scaled lipid accumulation score,[4],inactive: ≤ 0
same,scaled lipid accumulation score,[2],inactive: ≤ 0
same,scaled lipid accumulation score,[1],inactive: ≤ 0
CN(C)CCCCSC(=N)N,scaled lipid accumulation score,[1],inactive: ≤ 0
C1=N/C2=N/c3ccc(OCCN4CCCC4)c(c3)COC/C=C/COCc3cccc(c3)C(=C1)N2 [Pacritinib],scaled lipid accumulation score,[5],inactive: 0.184
same,scaled lipid accumulation score,[6],inactive: 0.686
same,scaled lipid accumulation score,[7],inactive: 0.473
C1=N/C2=N/c3ccc(OCCN4CCCC4)c(c3)COC/C=C/COCc3cccc(c3)C(=C1)N2 [Pacritinib (SB1518)],scaled lipid accumulation score,[2],inactive: 0.536
same,scaled lipid accumulation score,[1],inactive: 0.41
COc1cc(C=O)ccc1O [Vanillin],scaled lipid accumulation score,[2],inactive: ≤ 0
same,scaled lipid accumulation score,[1],inactive: ≤ 0
CC(=O)N1CCN(c2ccc(OCC3COC(Cn4ccnc4)(c4ccc(Cl)cc4Cl)O3)cc2)CC1 (stereo not drawn) [Ketoconazole],scaled lipid accumulation score,,inactive: 0.131
same,scaled lipid accumulation score,[2],inactive: 0.086
CC(=O)N1CCN(c2ccc(OCC3COC(Cn4ccnc4)(c4ccc(Cl)cc4Cl)O3)cc2)CC1 (stereo not drawn),scaled lipid accumulation score,[1],inactive: 0.048
CN(CCOc1ccc(NS(C)(=O)=O)cc1)CCc1ccc(NS(C)(=O)=O)cc1,scaled lipid accumulation score,[1],inactive: ≤ 0
CN(CCOc1ccc(NS(C)(=O)=O)cc1)CCc1ccc(NS(C)(=O)=O)cc1 [Dofetilide],scaled lipid accumulation score,[2],inactive: ≤ 0
same,scaled lipid accumulation score,library stock concentration: 4.5 mM,inactive: ≤ -0.006
same,scaled lipid accumulation score,[1],inactive: 0.026 and inactive: 0.09
CNCC(O)c1ccc(O)c(O)c1 (racemic) [(+/-)-Epinephrine hydrochloride],scaled lipid accumulation score,[1],inactive: ≤ 0
Cc1cccc(CCN2CCC(C(=O)c3ccc(NS(C)(=O)=O)cc3)CC2)n1,scaled lipid accumulation score,library stock concentration: 9.9 mM,inactive: 0.011
Cc1cccc(CCN2CCC(C(=O)c3ccc(NS(C)(=O)=O)cc3)CC2)n1 [E-4031 dihydrochloride],scaled lipid accumulation score,[1],inactive: ≤ 0
CCN(CC)CCn1c(=O)c(Cc2ccc(OC)cc2)nc2ccccc21 [Caroverine hydrochloride],scaled lipid accumulation score,[1],inactive: 0.098
Nc1nc2ccc(Cl)cc2n2c(-c3ccccc3)nnc12,scaled lipid accumulation score,[1],inactive: 0.049
n(c1N)c(N(CC)C(C)C)c(nc1C(=O)\N=C(\N)/N)Cl [5-(N-Ethyl-N-isopropyl)amiloride],scaled lipid accumulation score,[1],active: 1.07
NS(=O)(=O)c1ccc(C(=O)O)cc1,scaled lipid accumulation score,[1],inactive: ≤ 0
COc1cc2ncnc(Nc3ccc(Cl)cc3F)c2cc1OC,scaled lipid accumulation score,[2],inactive: ≤ 0
same,scaled lipid accumulation score,[1],inactive: ≤ 0 and inactive: ≤ -0.001
"CCCCCCCCCCCCC/C=C/[C@@H](O)[C@H](CO)N(C)C [N,N-Dimethylsphingosine]",scaled lipid accumulation score,[4],inactive: 0.185
Oc1ccc(Nc2nc(-c3ccc(Cl)cc3)cs2)cc1,scaled lipid accumulation score,[5],inactive: ≤ -0.001
same,scaled lipid accumulation score,[6],inactive: ≤ -0.001
same,scaled lipid accumulation score,[7],inactive: ≤ -0.001
same,scaled lipid accumulation score,[2],inactive: ≤ -0.009
same,scaled lipid accumulation score,[1],inactive: 0.141 and inactive: 0.011
Oc1ccc(Nc2nc(-c3ccc(Cl)cc3)cs2)cc1 [Sphingosine Kinase Inhibitor 2],scaled lipid accumulation score,[4],inactive: 0.058
NC(=O)c1c(NC(=O)C2CC2)sc2c1CCCC2,scaled lipid accumulation score,[5],inactive: ≤ -0.001
same,scaled lipid accumulation score,[6],inactive: ≤ -0.001
same,scaled lipid accumulation score,[7],inactive: ≤ -0.001
same,scaled lipid accumulation score,[1],inactive: 0.118
CNc1cc(NS(=O)(=O)c2ccc(N)cc2)nc(NC)n1 [Ro 04-6790 dihydrochloride],scaled lipid accumulation score,[1],inactive: ≤ 0
"CCCCC(C)CC(O)/C=C/C1C(O)CC(O)C1CCCCCCC(=O)O (stereo not drawn) [17,20-dimethyl Prostaglandin F1.alpha.]",scaled lipid accumulation score,[4],inactive: ≤ 0
N#Cc1ccc2[nH]c(O)c(-c3ccc(CN4CCOCC4)cn3)c2c1,scaled lipid accumulation score,[2],inactive: 0.477
same,scaled lipid accumulation score,[1],inactive: 0.769
O=C(Nc1ccc(Cl)cc1)c1ccccc1NCc1ccncc1 [VEGF Receptor Tyrosine Kinase Inhibitor II],scaled lipid accumulation score,[2],inactive: ≤ 0
C#C[C@]1(OC(C)=O)CC[C@H]2[C@@H]3CCC4=C[C@@H](OC(C)=O)CC[C@@H]4[C@H]3CC[C@@]21C [Ethynodiol diacetate],scaled lipid accumulation score,,inactive: ≤ 0
same,scaled lipid accumulation score,[2],inactive: ≤ 0
same,scaled lipid accumulation score,library stock concentration: 5.2 mM,inactive: ≤ 0
same,scaled lipid accumulation score,[1],inactive: ≤ -0.001
CC(C)[C@H](C(=O)Nc1ccc(C(=O)NO)cc1)c1ccccc1,scaled lipid accumulation score,[4],inactive: 0.3
same,scaled lipid accumulation score,[2],inactive: 0.53
same,scaled lipid accumulation score,[1],inactive: 0.523
N[C@H]1CCN(O)C1=O,scaled lipid accumulation score,[1],inactive: ≤ 0
COc1ccccc1OCCNCC(O)COc1cccc2[nH]c3ccccc3c12 (stereo not drawn) [Carvedilol],scaled lipid accumulation score,[1],active: 1.1
COc1ccc([C@@H]2CNC(=O)C2)cc1OC1CCCC1 [(R)-(-)-Rolipram],scaled lipid accumulation score,[1],inactive: ≤ -0.006
Nc1ccc(S(=O)(=O)Nc2ncccn2)cc1 [Sulfadiazine],scaled lipid accumulation score,,inactive: ≤ 0
same,scaled lipid accumulation score,[2],inactive: ≤ 0
same,scaled lipid accumulation score,library stock concentration: 8 mM,inactive: 0.029 and inactive: ≤ 0
same,scaled lipid accumulation score,[1],inactive: ≤ 0 and inactive: 0.006
CCCC(C)NC(=O)c1ccc(Cl)c(Cl)c1 (stereo not drawn),scaled lipid accumulation score,[2],inactive: ≤ -0.009
same,scaled lipid accumulation score,[1],inactive: ≤ 0
C=CCc1cc(OC)c(O)c(C(=O)NCCO)c1 [Alibendol],scaled lipid accumulation score,[2],inactive: 0.026
same,scaled lipid accumulation score,[1],inactive: ≤ 0
CO[C@@]1(NC(=O)C(C(=O)O)c2ccc(O)cc2)C(=O)N2C(C(=O)O)=C(CSc3nnnn3C)CO[C@@H]21 (stereo partly drawn) [Moxalactam disodium salt],scaled lipid accumulation score,,inactive: ≤ 0
CO[C@@]1(NC(=O)C(C(=O)O)c2ccc(O)cc2)C(=O)N2C(C(=O)O)=C(CSc3nnnn3C)CO[C@@H]21 (stereo partly drawn) [Moxalactam disodium],scaled lipid accumulation score,library stock concentration: 3.5 mM,inactive: ≤ -0.001
same,scaled lipid accumulation score,[1],inactive: ≤ 0
CN(CCc1ccc(Cl)c(Cl)c1)CC(O)COc1ccc(NS(C)(=O)=O)cc1 (stereo not drawn),scaled lipid accumulation score,[1],inactive: 0.524
Nc1[nH]nc2nc3ccccc3nc12,scaled lipid accumulation score,[1],inactive: ≤ -0.006
COc1cc2c(CCNC(C)=O)c[nH]c2cc1O [6-Hydroxymelatonin],scaled lipid accumulation score,[1],inactive: 0.044
O=C1CC[C@@H](C(=O)O)N1,scaled lipid accumulation score,[1],inactive: ≤ 0
CC(C)NC[C@H](O)COc1ccc(CCOCC2CC2)cc1 [Levobetaxolol HCl],scaled lipid accumulation score,[2],inactive: ≤ 0
same,scaled lipid accumulation score,[1],inactive: 0.148
COC(=O)C1=C(C)NC(C)=C(C(=O)OC)C1c1ccccc1[N+](=O)[O-] [Nifedipine],scaled lipid accumulation score,,inactive: 0.13
same,scaled lipid accumulation score,[2],inactive: ≤ 0
same,scaled lipid accumulation score,library stock concentration: 5.8 mM,inactive: ≤ -0.006 and inactive: ≤ -0.001
same,scaled lipid accumulation score,[1],inactive: ≤ 0 and inactive: ≤ -0.055 and inactive: 0.034
COC(=O)C1=C(C)NC(C)=C(C(=O)OC)C1c1ccccc1[N+](=O)[O-],scaled lipid accumulation score,[1],inactive: ≤ 0
N#Cc1ccc(NCCNCC(=O)N2CCC[C@H]2C#N)nc1 [NVP DPP 728 dihydrochloride],scaled lipid accumulation score,[1],inactive: ≤ 0
COc1cc(N2CCN(C)CC2)ccc1Nc1nccc(-c2cn(C)c3cnccc23)n1,scaled lipid accumulation score,[2],inactive: ≤ -0.009
same,scaled lipid accumulation score,[1],inactive: 0.446
CNC(=O)[C@H]1O[C@@H](n2cnc3c(NCc4ccc(N)cc4)ncnc32)[C@H](O)[C@@H]1O,scaled lipid accumulation score,[1],inactive: 0.11
